Results: a compilation of properties of binary mixtures (doi:10.1016/j.molliq.2016.11.074)
The densities may have been worked out from excess volumes.

Test: xn = mol fraction of the nth substance listed
Conditions: 100 kPa

O + CC[n+]1ccn(C)c1.CS(=O)(=O)[O-]
x1 = 1
Conditions | mass density [kg/m3]
298.15 K | 995.9
303.15 K | 994.2
308.15 K | 993.2
313.15 K | 991.6

CC[n+]1ccn(C)c1.CS(=O)(=O)[O-] + O
mass density [kg/m3]
Conditions | 293.15 K | 298.15 K | 303.15 K | 308.15 K | 313.15 K
x1 = 0.0028 | – | 1000.6 | – | 997.2 | 995.5
x1 = 0.0057 | – | 1008 | 1006.5 | 1004.7 | 1002.8
x1 = 0.0087 | 1014.6 | 1013.2 | – | – | –
x1 = 0.0119 | 1019.6 | 1018.2 | – | 1015.1 | 1013.7
x1 = 0.0188 | 1032.8 | – | 1029.3 | 1027.3 | 1025.1
x2 = 0 | 1243.1 | 1239.6 | 1236.2 | 1232.8 | 1229.4
x2 = 0.191 | – | 1233.9 | 1230.5 | 1227.1 | 1223.7
x2 = 0.3233 | 1234.5 | 1231.1 | 1227.8 | 1224.4 | 1221
x2 = 0.4274 | – | 1225.8 | 1222.4 | 1219.1 | 1215.7
x2 = 0.5057 | 1225.1 | 1221.7 | 1218.4 | 1215 | –
x2 = 0.619 | 1214.3 | 1210.9 | 1207.6 | 1204.2 | 1200.9
x2 = 0.7542 | 1191.9 | 1188.6 | 1185.2 | 1181.9 | 1178.5
x2 = 0.902 | 1124.9 | 1122 | 1119.1 | 1116.1 | 1113
x2 = 0.9651 | – | 1054.9 | 1052.7 | 1050.8 | 1049.2
